Results as given in the supplement of paper PMC10126150.
Sequences with one replicate were seen in a single cluster, so their values are uncertain.

test system: ATP; assay: switch fluorescence ratio, 500 uM ATP over buffer (Cy3 cluster intensity, sum of 5 cycles each) (fold (ratio)); higher = stronger signal-on switching upon ATP binding; sequences stand for … in TCGTCGGCAGCGTCAGATGTGTATAAGAGACAGTTTTTTTTTTTTTTTTTTTTTTTTT…TC; settings: aptamer strand: ATP DNA aptamer (quencher-CACCTGGGGGAGTATTGCGGAGGAAGG + anchor), 100 nM annealed; ATP concentration: 500 uM; one replicate
Outline: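 Values give the fluorescence ratio for each switch-domain sequence, averaged from per-cluster ratios of summed target-cycle to summed buffer-cycle Cy3 intensity. The Cy3-labelled switching-strand clusters sat on a modified Illumina MiSeq flow-cell, were annealed to 100 nM quencher-labelled ATP aptamer, and were imaged in selection buffer, then after 15 min with 500 uM ATP at 22 °C. Five cycles ran with NaOH stripping and re-annealing between them, and clusters outside 100-1000 RFU were excluded.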
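Note: ATP exposure 15 min at 22 °C before imaging.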

Row | Sequence | switch fluorescence ratio
1 | AGGATGGCTA | 1.02
2 | AGGATTGGAC | 1.01
3 | AGGATTTGG | 1.01
4 | AGGATTTTGA | 0.998
5 | AGGCAAAGGA | 1
6 | AGGCAAATTG | 1.05
7 | AGGCACGGAG | 1.01
8 | AGGCAGACG | 1.07
9 | AGGCAGAGTT | 0.945
10 | AGGCAGTCCC | 0.987
11 | AGGCATAACT | 1.07
12 | AGGCATCGTT | 0.981
13 | AGGCATGG | 1.1
14 | AGGCCAAATG | 0.959
15 | AGGCCACAAT | 1.12
16 | AGGCCCAATG | 0.974
17 | AGGCCCAGGA | 0.989
18 | AGGCCCGGA | 0.965
19 | AGGCCGCGCT | 1.03
20 | AGGCCTACGT | 0.998
21 | AGGCCTGGAT | 1.02
22 | AGGCGAATCA | 0.99
23 | AGGCGAATTC | 0.999
24 | AGGCGACTGT | 0.985
25 | AGGCGATGGT | 1.02
26 | AGGCGCAGTT | 1.03

Row | Sequence | switch fluorescence ratio
27 | AGGCGCCCAA | 0.957
28 | AGGCGGGTTA | 0.995
29 | AGGCGTGAAC | 1.03
30 | AGGCGTGACT | 0.998
31 | AGGCTAACGT | 0.979
32 | AGGCTAGGTA | 1.03
33 | AGGCTCCGGT | 1.01
34 | AGGCTGGGAT | 1.09
35 | AGGCTGGTAA | 1.03
36 | AGGCTGTA | 0.992
37 | AGGCTGTCCG | 0.987
38 | AGGCTGTCGT | 0.975
39 | AGGCTTCGGA | 0.979
40 | AGGCTTGCAG | 0.964
41 | AGGGAAACCT | 2.76
42 | AGGGACATTG | 1.02
43 | AGGGACCCAT | 1.07
44 | AGGGACTTTG | 0.993
45 | AGGGAGAT | 1.02
46 | AGGGAGCCGC | 1.03
47 | AGGGATATAG | 0.98
48 | AGGGATATGC | 1.01
49 | AGGGATATGG | 1.29
50 | AGGGATTGCA | 0.969
51 | AGGGATTGTC | 1.09
52 | AGGGATTGTT | 0.971

Row | Sequence | switch fluorescence ratio
53 | AGGGATTTGA | 0.944
54 | AGGGCAGCCG | 1.08
55 | AGGGCGAGT | 1.02
56 | AGGGCGTACC | 1.01
57 | AGGGCGTGAA | 1.02
58 | AGGGCTCGAG | 1
59 | AGGGCTCTGT | 1.02
60 | AGGGCTTACG | 1.02
61 | AGGGCTTAT | 1
62 | AGGGGAGAAG | 0.955
63 | AGGGGATGAT | 0.999
64 | AGGGGCATCA | 0.976
65 | AGGGGCGATT | 0.979
66 | AGGGGGACT | 0.995
67 | AGGGGGGACC | 1.01
68 | AGGGGGTCTC | 1
69 | AGGGGTATCA | 1.01
70 | AGGGGTCTCG | 0.964
71 | AGGGTAGCAG | 1.03
72 | AGGGTAGGT | 0.968
73 | AGGGTATACC | 1.02
74 | AGGGTCTCTT | 1.04
75 | AGGGTGCCTA | 1.01
76 | AGGGTGCTTT | 0.962
77 | AGGGTGTTAA | 0.976
78 | AGGTAA | 0.967

Row | Sequence | switch fluorescence ratio
79 | AGGTAAAAAT | 0.997
80 | AGGTAAAAGG | 0.96
81 | AGGTAATCGT | 0.983
82 | AGGTACGGGC | 1.05
83 | AGGTACTTAT | 1.06
84 | AGGTAGATGA | 1.08
85 | AGGTAGTTCT | 1.04
86 | AGGTATAAAT | 0.962
87 | AGGTATCTA | 0.979
88 | AGGTATGAGT | 0.993
89 | AGGTATTCCA | 0.987
90 | AGGTCAAAAT | 1
91 | AGGTCAGTAC | 1.28
92 | AGGTCCGCGT | 1.1
93 | AGGTCCTGA | 1.04
94 | AGGTCGACCT | 0.95
95 | AGGTCGACG | 0.964
96 | AGGTCGATGG | 0.994
97 | AGGTCGGCGC | 1.02
98 | AGGTCTTGCG | 0.993
99 | AGGTGAAGTA | 0.963
100 | AGGTGAATCA | 0.996
101 | AGGTGACATA | 1.01
102 | AGGTGACTTC | 1.04
103 | AGGTGATGAG | 1.04
104 | AGGTGCAGCT | 1.01

Row | Sequence | switch fluorescence ratio
105 | AGGTGCCCC | 1.09
106 | AGGTGCCCGG | 0.997
107 | AGGTGCGTCC | 1.06
108 | AGGTGCTATG | 1.01
109 | AGGTGCTGGC | 1.04
110 | AGGTGGACTA | 0.939
111 | AGGTGTAAGC | 1.02
112 | AGGTGTCAT | 1.01
113 | AGGTTAAATC | 0.992
114 | AGGTTACCCA | 1.04
115 | AGGTTACCG | 1.07
116 | AGGTTATGCT | 0.971
117 | AGGTTCATGG | 1
118 | AGGTTCATTC | 0.982
119 | AGGTTCTAAC | 1.08
120 | AGGTTGAGCA | 0.972
121 | AGGTTGAGTA | 1
122 | AGGTTGCTTT | 0.951
123 | AGGTTTCGCA | 0.965
124 | AGGTTTGAAA | 1.67
125 | AGGTTTGTC | 1.05
126 | AGTAAAGCAT | 1.03
127 | AGTAAATATG | 1.02
128 | AGTAAGAAGG | 0.986
129 | AGTAAGGATT | 0.961
130 | AGTAAGTGCT | 0.994

Row | Sequence | switch fluorescence ratio
131 | AGTAATCGAG | 0.996
132 | AGTAATGCTC | 1.47
133 | AGTAATTCGT | 1.03
134 | AGTACAAGTT | 0.952
135 | AGTACATTAG | 1.04
136 | AGTACCAACC | 1.11
137 | AGTACCCTGC | 1.04
138 | AGTACGTCAT | 1.11
139 | AGTACGTGGT | 1.01
140 | AGTACTGTTG | 1
141 | AGTAGCGTAT | 1.01
142 | AGTAGGACC | 0.986
143 | AGTAGGATCA | 0.979
144 | AGTAGGCGTG | 0.982
145 | AGTAGGGACC | 0.966
146 | AGTAGGTCTC | 1
147 | AGTAGTCCAG | 1.01
148 | AGTAGTTCAT | 0.971
149 | AGTATAACGT | 0.985
150 | AGTATAGACA | 1.02
151 | AGTATCCTTG | 0.985
152 | AGTATGGTTC | 0.984
153 | AGTATGTACC | 1.07
154 | AGTATTAGGG | 1.02
155 | AGTATTAGGT | 1.01
156 | AGTATTCAAC | 0.974

Row | Sequence | switch fluorescence ratio
157 | AGTATTGGGA | 0.997
158 | AGTATTTCCT | 1.06
159 | AGTCAAGGCT | 0.964
160 | AGTCAATGCG | 1.06
161 | AGTCACGCAT | 1.28
162 | AGTCATATCC | 1.01
163 | AGTCATCTAT | 0.972
164 | AGTCATCTTT | 0.958
165 | AGTCATGCGG | 1.03
166 | AGTCCACGGG | 1.09
167 | AGTCCATCGA | 1
168 | AGTCCCGCAT | 2.47
169 | AGTCCCGGCG | 1.01
170 | AGTCCCTGGT | 1.03
171 | AGTCCGGCGT | 1.02
172 | AGTCCTGAGG | 0.969
173 | AGTCGAGGCT | 1.01
174 | AGTCGAGGTC | 1.02
175 | AGTCGATCGG | 1.02
176 | AGTCGATTGC | 0.977
177 | AGTCGCTGGG | 0.953
178 | AGTCGGAGGA | 0.998
179 | AGTCGGATCA | 1.02
180 | AGTCGGGACA | 1.05
181 | AGTCGGGGA | 1.07
182 | AGTCGGGTTT | 1.03

Row | Sequence | switch fluorescence ratio
183 | AGTCGTAC | 1.02
184 | AGTCGTAGGA | 1.01
185 | AGTCGTCGTG | 1.04
186 | AGTCGTTTAG | 0.984
187 | AGTCTAAAAA | 1.02
188 | AGTCTACGGC | 0.956
189 | AGTCTAGA | 0.982
190 | AGTCTAGAAG | 0.963
191 | AGTCTAGCTT | 0.958
192 | AGTCTAGGGG | 1.01
193 | AGTCTCAATC | 1.02
194 | AGTCTGTTTT | 1
195 | AGTCTTGGGT | 0.995
196 | AGTGAAAAAA | 1.02
197 | AGTGAAATGC | 1.04
198 | AGTGAATGAT | 0.964
199 | AGTGATGGGC | 1.01
200 | AGTGCACG | 1.09
201 | AGTGCATAAG | 0.996
